Laboratory results taken from the RNAGym collection of RNA variant scans (doi:10.1073/pnas.2313332121).
Variants at the floor of the assay are shown more often than the library holds them.

B1: TPR 5TU (parent)
chain: GGAUCUUCUCGAUCUAACAAAAAAGACAAAUCUGCCACAAAGCUUGAGAGCAUCUUCGGAUGCAGAGGCGGCAGCCUUCGGUGGCGCGAUAGCGCCAACGUUCUCAACUAUGACACGCAAAACGCGUGCUCCGUUGAAUGGAGUUUAUCAUG

Variants of: B1
Experiment: polymerase ribozyme fitness, log enrichment relative to wild type (log ratio); higher = more active; in vitro selection for triplet polymerase activity
Outline: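 One round of in vitro selection, in triplicate, was applied to PCR-built, transcribed mutant libraries of each subunit of a heterodimeric triplet polymerase ribozyme. The steps were annealing with a biotinylated primer, partner subunit and triplets, incubation frozen at −7 °C, gel excision of extended constructs, streptavidin-bead capture and RT-PCR. Fitness is the logarithm, base 2, of genotype enrichment over wild-type enrichment from inverse-variance-weighted replicate averages of Illumina-sequenced inputs and outputs, keeping genotypes with ≥10 input reads and ≥1 read per output.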

Variant	polymerase ribozyme fitness (log ratio)
C27U A47C G83A C149G	≤ -4.2
C27U A52G C76G C85U G88C	≤ -4.2
C27U A73C C95G	≤ -4.2
C27U C32U A47U C85G U135G G152A	≤ -4.2
C27U C32U U53A G74C G83U C95G	≤ -4.2
C27U C35U G74C C79U G81C C85A A122U	≤ -4.2
C27U C36A U53G G67U C85G U104G A150U	≤ -4.2
C27U C36G C43A C57A U78G A98U A120G G133U	≤ -4.2
C27U C36U	-2.88
C27U C43U G46C A120G	≤ -4.2
C27U C54G C63A C85A C118U	≤ -4.2
C27U C54U G83U	-2.12
C27U C57A C95U	-2.1
C27U C57U A73G C87A G94U G141A U148A	≤ -4.2
C27U C75A G81A G92A U135A	≤ -4.2
C27U C75G U78A C85U U148G	≤ -4.2
C27U C75U C93G	≤ -4.2
C27U C76A	-2.31
C27U C85A	-2.04
C27U C85U C105U A115C G140U U144A C149A	≤ -4.2
C27U C87A A119G G141A	≤ -4.2
C27U C93A C131U G136A A138U A147U	≤ -4.2
C27U C93U A106C G133U	≤ -4.2
C27U G34A A66G A113C A121C	≤ -4.2

Variant	polymerase ribozyme fitness (log ratio)
C27U G42A U56A A60G A66G C79G C85U C95U U151A G152U	≤ -4.2
C27U G46C A66C A89U C93A A115U	≤ -4.2
C27U G50C C114G	≤ -4.2
C27U G58C C87A A107U	≤ -4.2
C27U G59A U78A C87U	≤ -4.2
C27U G59C G74A G80C G81A C125U	≤ -4.2
C27U G62A A97U A98C	-3.33
C27U G68C A89G C93A A110G G136C	≤ -4.2
C27U G86U C87A	≤ -4.2
C27U G92C U146C U151G	≤ -4.2
C27U G92U C114A U134C G136U A150G	≤ -4.2
C27U U31C C76A G86U G128C G143C U148G G152A	≤ -4.2
C27U U31G A40G G48A A52C C95U A137G A138C	≤ -4.2
C27U U33C A37C U61A C85A C87G G117C	≤ -4.2
C27U U33C G83C C87G	≤ -4.2
C27U U53A A113C G117U U139G	≤ -4.2
C27U U53G C75U C95A G136U	≤ -4.2
C27U U55A U56A	-2.25
C27U U61A C85U G141U	≤ -4.2
C27U U77A G92C C103A C149U	≤ -4.2
C27U U78A C79G A91C C118G	≤ -4.2
A28C A30C A41U C57U A107C	≤ -4.2
A28C A30C A47G G50A C57G C63U G94A C125A U127G A137G	≤ -4.2
A28C A30G C93U C103U	-4.06

Variant	polymerase ribozyme fitness (log ratio)
A28C A30U A39C C76A C85U G124C	≤ -4.2
A28C A30U A60C C75A C76U C93A C95G	≤ -4.2
A28C A37C C57A A73G C105G G124A	≤ -4.2
A28C A39U C103U C116G U139G	≤ -4.2
A28C A40G G42A U56C C75U U134G U148C	≤ -4.2
A28C A41C C95A G128A G140C G143A	≤ -4.2
A28C A47C G68C C79U C85A G88C U139G	≤ -4.2
A28C A49C	≤ -4.2
A28C A49C C96U G133A U134G	-4.14
A28C A49G C63U A113U A115C	≤ -4.2
A28C A52C C85A G86A G88A G94U C114U	≤ -4.2
A28C A52U A91U C95U A106G A121C	≤ -4.2
A28C A52U C87G A110U A138G	≤ -4.2
A28C A98U	≤ -4.2
A28C C32G G46C C51U A122C	≤ -4.2
A28C C35A A39U G84A C103G U145A	≤ -4.2
A28C C35A C85U U134G	≤ -4.2
A28C C36A C93G A142C U145C	≤ -4.2
A28C C36G U56G G83U A107U C132U G152A	≤ -4.2
A28C C36U A39U U55A A66U C79U A91U C93A	≤ -4.2
A28C C43A G59A C95A	≤ -4.2
A28C C51U C57A A73U C87G U101G A121U	≤ -4.2
A28C C54G C116U	≤ -4.2
A28C C54U G94C A97G	≤ -4.2

Variant	polymerase ribozyme fitness (log ratio)
A28C C57G G88C C116U A142G	≤ -4.2
A28C C57U G59A U78G G86A A115U	≤ -4.2
A28C C75A G92A C108G	≤ -4.2
A28C C75U C85G	≤ -4.2
A28C C85A	≤ -4.2
A28C C87A C96A C99G C125U G140C	≤ -4.2
A28C C87G C99A U148C	≤ -4.2
A28C G34C A98G C99G C105U	≤ -4.2
A28C G42C C76G C79G G86C U90G A97G U145C	≤ -4.2
A28C G46C G84A C85U	≤ -4.2
A28C G50U C85U G92A C95U G143A U144A	≤ -4.2
A28C G81A U90C A150G	≤ -4.2
A28C G88C G117U A119U	≤ -4.2
A28C G117U	≤ -4.2
A28C G140U	≤ -4.2
A28C U44A A64C U77C G84U G141C	≤ -4.2
A28C U45A U56A G58U A60G G92U	≤ -4.2
A28C U53A C93U	≤ -4.2
A28C U53A G58C A91G U146C	≤ -4.2
A28C U53A U56A A137G U148A	≤ -4.2
A28C U53A U109G G152A	≤ -4.2
A28C U53G G58A C76A G83U U90G	≤ -4.2
A28C U55A C75G	≤ -4.2
A28C U56A C57A G68A C76A G88U G94A A138C	≤ -4.2

Variant	polymerase ribozyme fitness (log ratio)
A28C U56A C96A U102G A110U	≤ -4.2
A28C U61A G88A	≤ -4.2
A28C U61A U134A U148C	≤ -4.2
A28C U77A G83U C99G C105G A120U U134A	≤ -4.2
A28G A29U C87G C96A	≤ -4.2
A28G A39C G58A U61A C93A G140C	≤ -4.2
A28G A40U C69A C85U U102G G152C	≤ -4.2
A28G A41G A89G G136A	≤ -4.2
A28G A49G G50A C87G	≤ -4.2
A28G C32G G84A C85G A115U G141C	≤ -4.2
A28G C32G G84U C93A G136U	≤ -4.2
A28G C35U A97G C103A C105U U134C A150U G152A	≤ -4.2
A28G C36G C38U G81A C103A G141A	≤ -4.2
A28G C36U C54A G59C G86A A119C	≤ -4.2
A28G C38U G48C C75A C87G C125U U134A A150U	≤ -4.2
A28G C54U U55A G67U G80C A121G A147G	≤ -4.2
A28G C63G C96A C116U	≤ -4.2
A28G C75A U78A G94C G141A U146G	≤ -4.2
A28G C79G	≤ -4.2
A28G C93A	≤ -4.2
A28G C93U G124U C149G	≤ -4.2
A28G C116U	-3.63
A28G G42C C43A U55A	≤ -4.2
A28G G50C G81C C95G C96U A98C A113U G143U	≤ -4.2

Variant	polymerase ribozyme fitness (log ratio)
A28G G59U G68A C75A C85A G92U C93A G117A	≤ -4.2
A28G G65C	≤ -4.2
A28G G83C	-4.1
A28G G84U G133C	≤ -4.2
A28G G88U A89C C116U	≤ -4.2
A28G G94A	-3.42
A28G G140A	-4.13
A28G U31C U45A A98U	≤ -4.2
A28G U33G A49C A52G C85A U139C	≤ -4.2
A28G U53A G84A U111C	≤ -4.2
A28G U53G C85A U104G A106G A138U A147G	≤ -4.2
A28G U55A	-2.49
A28G U55A A98U C123U	≤ -4.2
A28U A29G G88U G128A C131A	≤ -4.2
A28U A29U A52G C76U G83C C93G C132U	≤ -4.2
A28U A30C A41U A49C C85A G117C C118G C149A	≤ -4.2
A28U A30C U53G A64U C118U	≤ -4.2
A28U A30G C38U U56A A64U A107G	≤ -4.2
A28U A30U U33G G58C G141U	≤ -4.2
A28U A37U U139A	≤ -4.2
A28U A39C A98G G143U U144G U146G	≤ -4.2
A28U A39U A47U C79G C87U U135G G140C	≤ -4.2
A28U A39U A52G A73C C96U C105U C129A	≤ -4.2
A28U A40C A52G C85A C129G	≤ -4.2

Variant	polymerase ribozyme fitness (log ratio)
A28U A40U A49U	≤ -4.2
A28U A47G C85A G117U U144G	≤ -4.2
A28U A47G C96U C103G	≤ -4.2
A28U A49C U61A G92A A113G C149G	≤ -4.2
A28U A49U U139G	≤ -4.2
A28U A52C A97U A137U U139C	≤ -4.2
A28U A52C C99U G112C G136U	≤ -4.2
A28U A52U C93U C95A U102A C125G U134C G141U	≤ -4.2
A28U A60G A66U A91U A107G C125G U135C	≤ -4.2
A28U A64G A137U A138C U144A C149A	≤ -4.2
A28U A64U C69U C85U U135A	≤ -4.2
A28U A66C C72U A91C C114U	≤ -4.2
A28U A73U C95U U134A	≤ -4.2
A28U A106G C116G	≤ -4.2
A28U C32G A41U A73G C85G G88U G136A	≤ -4.2
A28U C35G C54A C79A G80C A89C G94A	≤ -4.2
A28U C35U	-4.12
A28U C35U C87G A97U C103A G140A	≤ -4.2
A28U C36A G50C U55A A66U C95G U109C A110C U127G	≤ -4.2
A28U C36G C95U G100U	≤ -4.2
A28U C36U C85A A147U	≤ -4.2
A28U C38A A52U C85A C114A	≤ -4.2
A28U C38U G50C C72U G80A C116U	≤ -4.2
